Values joined by “and” are separate entries in the source; they are usually repeats but may differ in a detail not shown here. Identical values can stand only once.
Experiments:
[1] = molecular target: T1, 6-His-AdhE (bifunctional aldehyde-alcohol dehydrogenase AdhE, Escherichia coli K12) (Escherichia coli K12), P0A9Q7; assay: AUC; settings: remark: other sources report otherwise
T1 chain: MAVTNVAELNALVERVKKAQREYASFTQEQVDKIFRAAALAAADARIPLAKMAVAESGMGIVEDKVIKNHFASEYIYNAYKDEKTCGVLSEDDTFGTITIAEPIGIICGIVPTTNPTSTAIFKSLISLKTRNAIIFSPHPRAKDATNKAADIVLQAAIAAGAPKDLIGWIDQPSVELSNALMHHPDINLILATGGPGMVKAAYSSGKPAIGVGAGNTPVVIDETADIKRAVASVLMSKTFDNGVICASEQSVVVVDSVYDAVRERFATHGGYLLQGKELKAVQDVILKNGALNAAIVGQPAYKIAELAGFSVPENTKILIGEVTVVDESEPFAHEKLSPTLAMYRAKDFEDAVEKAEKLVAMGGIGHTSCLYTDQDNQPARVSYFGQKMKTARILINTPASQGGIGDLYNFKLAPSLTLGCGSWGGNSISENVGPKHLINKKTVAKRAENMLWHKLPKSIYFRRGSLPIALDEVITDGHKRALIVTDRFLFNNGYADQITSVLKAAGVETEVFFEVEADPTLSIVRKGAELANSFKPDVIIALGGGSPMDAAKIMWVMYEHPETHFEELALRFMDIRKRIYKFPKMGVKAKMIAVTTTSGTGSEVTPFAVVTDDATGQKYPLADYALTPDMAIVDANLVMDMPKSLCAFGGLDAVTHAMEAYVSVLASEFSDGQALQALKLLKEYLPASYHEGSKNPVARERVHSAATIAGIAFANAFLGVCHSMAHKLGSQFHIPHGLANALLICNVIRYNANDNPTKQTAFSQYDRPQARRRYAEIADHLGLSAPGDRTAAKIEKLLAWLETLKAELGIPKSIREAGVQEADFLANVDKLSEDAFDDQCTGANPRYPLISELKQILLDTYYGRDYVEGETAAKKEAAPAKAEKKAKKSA

[2] = molecular target: T1, 6-His-AdhE (bifunctional …); assay: SAXS; settings: remark: other sources report otherwise

B1: 6-His-AdhE (bifunctional aldehyde-alcohol dehydrogenase AdhE, Escherichia coli K12), P0A9Q7 1-891 (enzyme)
chain: T1 chain
[1]
  stoichiometry N: < 50 mer
[2]
  stoichiometry N: 40 mer and 14 mer
